Results as given in patent publication US6570002 (Johns Hopkins, dated 2003).

Target: T1, Aven (human, UniProt Q9NQS1 1-362)
T1 construct: also called Bif-1
T1 sequence: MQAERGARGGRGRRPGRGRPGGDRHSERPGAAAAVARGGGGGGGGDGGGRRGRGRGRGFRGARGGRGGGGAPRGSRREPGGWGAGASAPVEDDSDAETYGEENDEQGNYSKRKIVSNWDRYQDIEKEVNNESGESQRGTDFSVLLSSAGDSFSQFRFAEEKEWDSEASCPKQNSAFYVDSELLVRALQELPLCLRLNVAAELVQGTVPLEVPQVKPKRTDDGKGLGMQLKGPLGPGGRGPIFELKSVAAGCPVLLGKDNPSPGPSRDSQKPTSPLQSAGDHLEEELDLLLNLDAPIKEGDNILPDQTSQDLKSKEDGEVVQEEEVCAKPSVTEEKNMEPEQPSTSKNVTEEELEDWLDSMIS
Assay: yeast two-hybrid screen

B1: Bcl-xL (other)
chain: not shown
notes: also called human Bcl-xL; hBcl-xL
B1: binds.
